Measured values reported in PubChem BioAssay AID1745845 (National Center for Advancing Translational Sciences (NCATS), 2022).
In all, about 360,000 compounds went through this assay and about 2,600 (0.72%) were called active. The shares of active, inactive and inconclusive entries below differ from those in the screen. The call rests on the fitted dose curve; in most records, active means well fitted inhibition curve with a large enough effect; inconclusive means small, poorly fitted or top-dose-only effect; inactive means no such curve, though single readings can be large or run the other way. Potencies of inconclusive entries are doubtful fits and often do not repeat.

Assay: Primary qHTS for Inhibitors of ATXN expression; further: nearly all actives have a fitted effect of over 55% in size
Conditions: HEK-293 ATXN2-luciferase reporter, luminescence, 24 h; series mostly up to 57 µM
Outline: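 ATXN2-luciferase reporter cells (luciferase flanked by upstream and downstream ATXN2 gene portions) were treated 24 h at 37 °C with compounds at up to 57 uM. SteadyGlo luminescence gave expression; GF-AFC fluorescence gave viability.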
Potency means the concentration at half of the fitted maximal effect; tags describe the fitted curve by direction and shape.

Question: For `Cc1ccc2c(c1)c1ncnc(N3CCN(c4ccccc4)CC3)c1n2C`, which Potency is on record?
Answer: inconclusive: 25.1 µM [inhibitor, partial curve, poor fit]

Question: For `C=C1/C=C(\C)C(C)(O)CC(O)CC(=O)C(O)C(O)C(C)CC(C)OC(=O)/C(C)=C/CC/C=C/C(OC)C(O)CC(C)C1` (stereo unspecified), which Potency is on record?
Answer: inconclusive: 39.8 µM [inhibitor, partial curve, poor fit]

Question: For `C=CCOc1ccc(/C=C2\C(=N)N3N=C(S(=O)(=O)CC)SC3=NC2=O)cc1OC`, which Potency is on record?
Answer: inconclusive: 0.947 µM [inhibitor, partial curve, poor fit]

Question: Which Potency does the source give for `O=C(N[C@H]1C/C=C\C[C@H](CC(=O)N(CCO)Cc2ccccc2)C(=O)N[C@@H](c2ccccc2)COC1=O)OCC1c2ccccc2-c2ccccc21` here?
Answer: inactive

Question: With `Cc1c(C(=O)NCc2ccc(C(F)(F)F)cc2)sc(=O)n1Cc1cccc(F)c1` as the molecule, how does the Potency read?
Answer: inconclusive: 39.8 µM [inhibitor, single point]

Question: With `CCOC(=O)c1c(CN2CCN(C)CC2)n(-c2ccccc2)c2cc(Br)c(O)cc12` as the molecule, how does the Potency read?
Answer: inconclusive: 2.51 µM [inhibitor, partial curve, poor fit]

Question: For `Cc1cc(C)c(CN2CCN(CCCn3ccc(NC(=O)OCc4ccccc4)nc3=O)CC2)c(C)c1`, which Potency is on record?
Answer: inconclusive: 25.1 µM [inhibitor, single point]

Question: For `CCOC(=O)c1nnc(-c2ccccc2)nc1Sc1c(Cl)cccc1Cl`, which Potency is on record?
Answer: inconclusive: 39.8 µM [inhibitor, single point]

Question: With `COC(=O)c1ccc(COc2ccc(/C=N/NC(N)=S)cc2)o1` as the molecule, how does the Potency read?
Answer: inconclusive: 0.0095 µM [inhibitor, full curve, poor fit]

Question: With `COc1ccccc1NC(=O)Nc1nc(CC(=O)N2CCN(c3ccc(F)cc3)CC2)cs1` as the molecule, how does the Potency read?
Answer: inconclusive: 22.4 µM [inhibitor, single point]

Question: Which Potency does the source give for `Cc1ccc(-n2c(Cl)c(Cl)nc(Cl)c2=O)cc1` here?
Answer: active: 5.32 µM

Question: With `O=C(C=CC#Cc1cccc(NS(=O)(=O)c2ccccc2)c1)NO` as the molecule, how does the Potency read?
Answer: inactive

Question: Which Potency does the source give for `O=C(CN1CCCC1)NC1C2CC3CC(C2)CC1C3` (stereo unspecified) here?
Answer: inactive

Question: For `CC(=O)NC(c1cc(Cl)c2cccnc2c1O)C(C)C` (stereo unspecified), which Potency is on record?
Answer: active: 5.62 µM

Question: With `COc1ccc(C=CC(C)=NNC(=O)c2ccncc2)cc1` as the molecule, how does the Potency read?
Answer: inconclusive: 15.8 µM [inhibitor, partial curve, poor fit]

Question: With `COc1ccc(-c2nc3ccc(C)cn3c2Cc2ccccc2)cc1OC` as the molecule, how does the Potency read?
Answer: inconclusive: 35.5 µM [inhibitor, single point]

Question: Which Potency does the source give for `O=C1NC[C@@H](Cc2cccc3ccccc23)N(CC2(c3ccccc3)CC2)C1=O` here?
Answer: inconclusive: 39.8 µM [inhibitor, single point]

Question: With `OCC[C@@H]1C[C@H](O)[C@@H](O)[C@@]2(OCc3cc(Cl)ccc32)O1` as the molecule, how does the Potency read?
Answer: inactive

Question: For `O=C(Nc1ccccc1-c1ccccc1)C12CC3CC(CC(C3)C1)C2`, which Potency is on record?
Answer: inactive

Question: Which Potency does the source give for `CC1(S(=O)(=O)O)CC(=O)c2ccccc2C1=O` (stereo unspecified) here?
Answer: active: 25.1 µM

Question: With `C[C@H](CO)N1C[C@H](C)[C@@H](CN(C)Cc2cccc(F)c2)Oc2cc(-c3cccc(C#N)c3)ccc2S1(=O)=O` as the molecule, how does the Potency read?
Answer: inconclusive: 10 µM [inhibitor, partial curve, poor fit]

Question: Which Potency does the source give for `Cn1nnnc1Sc1ncnc2scc(-c3cccc(S(C)(=O)=O)c3)c12` here?
Answer: active: 8.91 µM

Question: With `COc1cnc(-c2ccccn2)nc1Oc1c(C)cccc1C` as the molecule, how does the Potency read?
Answer: inconclusive: 39.8 µM [inhibitor, single point]

Question: For `Cc1ccc(NC(C(=O)c2ccccc2)c2ccccc2)cc1` (stereo unspecified), which Potency is on record?
Answer: inconclusive: 39.8 µM [inhibitor, partial curve, poor fit]

Question: With `Cn1cc(CNCc2cn(C)nc2-c2ccc(C3CCCCC3)cc2)cn1` as the molecule, how does the Potency read?
Answer: inconclusive: 2.12 µM [inhibitor, partial curve, poor fit]

Question: With `O=C(O)CCCCC1SCC2NC(=O)NC21` (stereo unspecified) as the molecule, how does the Potency read?
Answer: inactive

Question: Which Potency does the source give for `FC(F)C(F)(F)Oc1cccc(-c2n[nH]c(=S)n2Cc2ccccc2)c1` here?
Answer: inactive

Question: For `CC(C)n1cnc2c(NCCCCCCNC(=O)OC(C)(C)C)nc(NCCO)nc21`, which Potency is on record?
Answer: active: 13.7 µM

Question: With `Cc1nc(C)c(/C(O)=C\c2nc3ccc([N+](=O)[O-])cc3oc2=O)o1` as the molecule, how does the Potency read?
Answer: inconclusive: 21.2 µM [inhibitor, partial curve, poor fit]

Question: For `CCCC(=O)OCCNc1cc(SCc2ccco2)c2nonc2c1[N+](=O)[O-]`, which Potency is on record?
Answer: inactive

Question: With `C=CCOc1ccc(/C=C\c2nc(O)c([N+](=O)[O-])c(=O)[nH]2)cc1OC` as the molecule, how does the Potency read?
Answer: inconclusive: 37.7 µM [inhibitor, partial curve, poor fit]

Question: With `CC(C)(C)OC(=O)NCCCC[C@H](NC(=O)c1[nH]cnc1C(=O)Nc1ccccc1)C(=O)OC(C)(C)C` as the molecule, how does the Potency read?
Answer: inconclusive: 39.8 µM [inhibitor, single point]

Question: Which Potency does the source give for `CCNC(=O)C1CCCN(C(=O)c2cc(F)cc(F)c2)CC1` (stereo unspecified) here?
Answer: inactive

Question: Which Potency does the source give for `CS(=O)(=O)c1nc([N+](=O)[O-])nn1CCCc1ccccc1` here?
Answer: inconclusive: 39.8 µM [inhibitor, single point]

Question: For `Nc1ccc(-c2cc(NC=O)c3ncc(-c4cccc(C(F)(F)F)c4)n3c2)cn1`, which Potency is on record?
Answer: inconclusive: 15.8 µM [inhibitor, partial curve, poor fit]

Question: With `CC(=O)NC(c1ccc(C(C)C)cc1)c1ccc2cccnc2c1O` (stereo unspecified) as the molecule, how does the Potency read?
Answer: active: 3.16 µM

Question: Which Potency does the source give for `CN(C)CCNC(=O)c1cccc(-c2cc(NC=O)c3ncc(-c4cccc(C(F)(F)F)c4)n3c2)c1` here?
Answer: active: 22.4 µM

Question: With `CC(C)OC(=O)c1cc2c(ccn2C)n1CC(=O)N(Cc1ccccc1)c1ccc(F)cc1` as the molecule, how does the Potency read?
Answer: inconclusive: 39.8 µM [inhibitor, single point]

Question: Which Potency does the source give for `CN(C)c1ccc(/C=c2\sc3n(c2=O)CCCN=3)cc1` here?
Answer: inconclusive: 20 µM [inhibitor, single point]

Question: Which Potency does the source give for `CC(=O)c1cc(NC(=O)c2cccc(C(F)(F)F)c2)c(=O)oc1C` here?
Answer: inactive

Question: With `CCN(CC)C(=O)OCc1c(-c2cccc(OC)c2)ncc2ccccc12` as the molecule, how does the Potency read?
Answer: inconclusive: 12.6 µM [inhibitor, partial curve, poor fit]

Question: Which Potency does the source give for `Cc1ccc(NC(=O)Cn2cccc2)cc1C` here?
Answer: inactive

Question: Which Potency does the source give for `Cc1cccc(NC(=O)C(C)Sc2nnc(-c3cccnc3)o2)c1` (stereo unspecified) here?
Answer: inactive

Question: For `N#C/C(=C/c1cn(-c2ccccc2)nc1-c1cccc(OCc2ccccc2)c1)C(=O)NCCCn1ccnc1`, which Potency is on record?
Answer: inconclusive: 31.6 µM [inhibitor, single point]

Question: For `O=C(O)C1Cc2ccccc2CN1S(=O)(=O)c1ccc(Cl)cc1` (stereo unspecified), which Potency is on record?
Answer: inconclusive: 8.44 µM [inhibitor, single point]

Question: With `O=C(c1cc(-c2ccc3c(c2)OCO3)on1)N1CCOCC1` as the molecule, how does the Potency read?
Answer: inconclusive: 15.8 µM [inhibitor, partial curve]

Question: With `O=c1c2c3c(sc2ncn1/N=C/c1ccc([N+](=O)[O-])o1)CCCC3` as the molecule, how does the Potency read?
Answer: inconclusive: 31.6 µM [inhibitor, partial curve, poor fit]

Question: For `CN(/C=C/c1c([N+](=O)[O-])c(=O)n(C)c(=O)n1C)c1ccccc1`, which Potency is on record?
Answer: inactive

Question: With `CNC(=S)NN=C(C)CCCC(C)=NNC(=S)NC` as the molecule, how does the Potency read?
Answer: active: 10.6 µM

Question: For `CCCC#Cc1ccc2c(c1)O[C@H](CN(C)S(=O)(=O)c1cccc(OC)c1)[C@H](C)CN([C@H](C)CO)S2(=O)=O`, which Potency is on record?
Answer: inconclusive: 22.4 µM [inhibitor, single point]

Question: With `Cc1ccc(NC(=O)C2CCN(C(=O)OC(C)(C)C)CC2)cc1S(=O)(=O)N1CCCCC1` as the molecule, how does the Potency read?
Answer: inconclusive: 39.8 µM [inhibitor, single point]

Question: Which Potency does the source give for `COC(=O)c1ccc2c(=O)[nH]c(CSc3nc(-c4ccc(F)cc4)cs3)nc2c1` here?
Answer: inconclusive: 2.38 µM [inhibitor, partial curve, poor fit]

Question: For `Cc1ccccc1CCNC(=O)CCn1ccc2cc(S(=O)(=O)N3CCCC3)ccc21`, which Potency is on record?
Answer: inconclusive: 25.1 µM [inhibitor, partial curve, poor fit]

Question: With `Oc1cc(-c2ccc(N3CCCCC3)nc2)cc2cccnc12` as the molecule, how does the Potency read?
Answer: inconclusive: 39.8 µM [inhibitor, single point]

Question: For `CCOC(=O)N1CCC(NS(=O)(=O)c2ccc(NC(C)=O)c(Cl)c2)CC1`, which Potency is on record?
Answer: inactive

Question: With `CC(=O)Nc1cc(-c2cccc(C(=O)NCCN(C)C)c2)cn2c(-c3ccccc3)cnc12` as the molecule, how does the Potency read?
Answer: inconclusive: 28.2 µM [inhibitor, partial curve, poor fit]

Question: Which Potency does the source give for `Cc1nc2ccccc2c2oc(C(=O)NCC3COc4ccccc4O3)cc12` (stereo unspecified) here?
Answer: inconclusive: 25.1 µM [inhibitor, single point]

Question: For `Cc1nnc(SCC(=O)N/N=C/c2cn(-c3ccccc3)nc2-c2ccccc2)n1-c1ccccc1`, which Potency is on record?
Answer: inactive

Question: For `COc1cc(C(=O)Nc2nc(-c3ccc(F)cc3)cs2)ccc1OCC(=O)N1CCOCC1`, which Potency is on record?
Answer: inconclusive: 31.6 µM [inhibitor, single point]

Question: For `COc1ccc(C(=O)C(CN2CCOCC2)c2ccccc2)cc1F` (stereo unspecified), which Potency is on record?
Answer: inconclusive: 39.8 µM [inhibitor, single point]

Question: Which Potency does the source give for `COCCNC(=O)CNC(=O)c1nn(-c2ccc(OC)c(Cl)c2)c(=O)c2ccccc12` here?
Answer: inconclusive: 39.8 µM [inhibitor, partial curve, poor fit]

Question: With `COc1ccccc1C(=O)Oc1c(Sc2ccccc2)c(C)nn1-c1ccccc1` as the molecule, how does the Potency read?
Answer: inconclusive: 35.5 µM [inhibitor, single point]

Question: Which Potency does the source give for `O=C(Nc1ccc(Cl)cc1)NC1CCCCC1Cc1ccco1` (stereo unspecified) here?
Answer: inconclusive: 39.8 µM [inhibitor, single point]

Question: For `Cc1ccccc1N(C(=O)Cn1nnc(-c2cccs2)n1)C(C(=O)NCCC(C)C)c1ccco1` (stereo unspecified), which Potency is on record?
Answer: inactive

Question: With `COc1cc(NC(=O)CCN2CCN(c3ccccc3F)CC2)cc(OC)c1` as the molecule, how does the Potency read?
Answer: inactive

Question: With `COc1ccc(NS(=O)(=O)c2ccc3[nH]c(=O)ccc3c2)cc1OC` as the molecule, how does the Potency read?
Answer: inactive
